Among all 310,000 compounds or so, about 2,200 (0.71%) showed an effect of 50% or more. Effects have a minus sign here. This is one part of the list.
target: human ether-à-go-go-related gene (hERG) potassium channel (human, UniProt Q12809); test: primary screen, population patch clamp on CHO cells stably expressing hERG
Sequence (Q12809 whole entry, looked up): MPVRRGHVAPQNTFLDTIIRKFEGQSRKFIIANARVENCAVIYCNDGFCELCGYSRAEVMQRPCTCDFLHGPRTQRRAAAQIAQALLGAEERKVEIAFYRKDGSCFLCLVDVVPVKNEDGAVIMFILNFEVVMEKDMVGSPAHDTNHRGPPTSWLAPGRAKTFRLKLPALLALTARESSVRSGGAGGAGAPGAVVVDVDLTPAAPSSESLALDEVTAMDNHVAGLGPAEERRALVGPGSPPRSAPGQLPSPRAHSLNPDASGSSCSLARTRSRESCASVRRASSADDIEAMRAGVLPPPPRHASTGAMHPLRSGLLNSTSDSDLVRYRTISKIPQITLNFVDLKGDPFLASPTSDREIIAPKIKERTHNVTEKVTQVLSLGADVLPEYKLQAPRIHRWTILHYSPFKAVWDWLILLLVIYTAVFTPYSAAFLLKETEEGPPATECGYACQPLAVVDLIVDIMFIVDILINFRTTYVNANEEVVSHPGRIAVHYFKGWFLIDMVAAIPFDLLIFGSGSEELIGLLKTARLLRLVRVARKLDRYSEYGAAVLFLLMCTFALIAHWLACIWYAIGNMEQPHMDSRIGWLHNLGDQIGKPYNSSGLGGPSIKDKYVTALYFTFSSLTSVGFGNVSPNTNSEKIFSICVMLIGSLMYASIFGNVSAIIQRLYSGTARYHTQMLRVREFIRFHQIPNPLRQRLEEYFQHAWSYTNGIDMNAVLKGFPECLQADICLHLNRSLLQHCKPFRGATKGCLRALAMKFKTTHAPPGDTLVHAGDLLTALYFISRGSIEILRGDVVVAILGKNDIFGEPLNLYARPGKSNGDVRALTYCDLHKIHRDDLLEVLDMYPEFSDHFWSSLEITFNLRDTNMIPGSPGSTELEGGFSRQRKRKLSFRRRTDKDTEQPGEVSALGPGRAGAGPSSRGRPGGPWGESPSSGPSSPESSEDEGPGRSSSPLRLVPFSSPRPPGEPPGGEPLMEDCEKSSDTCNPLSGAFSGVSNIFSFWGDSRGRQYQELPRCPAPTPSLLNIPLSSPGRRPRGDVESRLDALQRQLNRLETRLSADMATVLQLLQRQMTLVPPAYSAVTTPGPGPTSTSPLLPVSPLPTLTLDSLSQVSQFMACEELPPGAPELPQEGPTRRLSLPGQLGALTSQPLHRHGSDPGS

Row | SMILES | hERG current change (%, negative = inhibition) at 1uM [%]
1 | C=CCNc1oc(-c2ccco2)nc1S(=O)(=O)c1ccccc1 | -2.71
2 | Cc1ccc(NC(=O)c2sc(N)nc2-c2ccc([N+](=O)[O-])cc2)c(C)c1 | -0.358
3 | O=C(CNCc1ccc(Cl)cc1)N1CCc2ccccc2C1 | 1.89
4 | CC(NC(=O)C(C)N1CCN(Cc2ccccc2)CC1)c1ccc(F)cc1 (stereo not shown) | 12.5
5 | O=C(NCc1cccnc1)c1ccccc1NS(=O)(=O)c1ccccc1 | 14.9
6 | O=C1NC(c2ccccc2)C(C(=O)c2cccs2)=C1O (stereo not shown) | 16.4
7 | COc1ccccc1Nc1c2c(nc3ccccc13)CCC2 | -7.26
8 | Cc1ccc(OC(=O)c2cccc(C(=O)Oc3ccc(C)cc3)n2)cc1 | 12.1
9 | COc1ccc(S(=O)(=O)N2CCCC2)cc1Br | 13.3
10 | CCOC(=O)c1cn(CC(=O)Nc2ccc(OC)cc2OC)nn1 | 6.75
11 | CC(=O)Nc1c(O)nc(SCc2ccccc2C#N)[nH]c1=O | 4.46
12 | N#C/C(=C\C=C\c1ccccc1)c1nc(-c2ccc(Cl)cc2)cs1 | 12.8
13 | O=C(O)c1cc(-c2ccc3c(c2)OCO3)nc2ccc(Br)cc12 | 11.8
14 | COc1cc(S(=O)(=O)N2CCCC3(CCCCC3)C2)ccc1-n1cnnn1 | 9.29
15 | CN(C)S(=O)(=O)c1ccc(NC(=O)Cn2c(-c3ccccc3)noc2=O)cc1 | 8.71
16 | S=c1[nH]c(-c2cccs2)cn1-c1ccccc1 | 20.8
17 | CC(C)(C)c1ccccc1NC(=O)N1CCNC(=O)C1CC(=O)Nc1ccc(F)cc1 (stereo not shown) | 18.5
18 | COc1ccc2oc(=O)c(C(=O)N3CCN(c4ccccc4)CC3)cc2c1 | 2.83
19 | Cl.O=C(CN1CCCCCC1)Nc1cccc(Br)c1 | -11.8
20 | CNC(=O)CN(C1CCCCC1)S(=O)(=O)c1ccc(F)cc1 | 11.7
21 | Cn1c(N)c(C(=O)COC(=O)c2ccc(Cl)c(S(=O)(=O)N3CCCC3)c2)c(=O)n(C)c1=O | 4.99
22 | O=C(NC1CC1)C(=O)c1c(-c2ccccc2)[nH]c2ccccc12 | 15.8

Row | SMILES | hERG current change (%, negative = inhibition) at 1uM [%]
23 | NC1=NC(c2ccccc2)N=C(Nc2ccccc2)N1 (stereo not shown) | 9.14
24 | O=S1(=O)CCOC[C@H](Cc2ccccc2)N1Cc1ccccc1 | -13.3
25 | Cc1cc(=O)[nH]c(N/N=C/c2c(C)nn(-c3ccccc3Cl)c2Cl)n1 | 21.2
26 | Cc1ccc(/C=N/NC(=O)c2n[nH]c3c2CCCC3)cc1 | 12.7
27 | Cc1ccc(S(=O)(=O)Cn2nnnc2C(CC(C)C)N2CCN(C(=O)c3ccco3)CC2)cc1.Cl (stereo not shown) | 7.63
28 | CCc1ccc(S(=O)(=O)N/N=C\c2ccc([N+](=O)[O-])o2)cc1 | 16
29 | Cc1ccc2c(c1)/C(=C/c1ccccc1)C(=O)N2 | 15.6
30 | Cn1c2ccccc2c2c(C(=O)N3CCN(C(=O)c4ccco4)CC3)cn(C3CCCCC3)c(=O)c21 | 11.5
31 | O=C(COc1ccc(Cl)cc1)NCc1cn2cc(Cl)ccc2n1 | -15.3
32 | O=C(c1ccc(Br)cc1)N1CCC(C(=O)N2CCN(c3ccccc3)CC2)CC1 | -34.5
33 | CCOC(=O)c1c(NC(=O)Cn2nc(C(F)F)cc2C(F)F)sc(C)c1C | 10.8
34 | Cc1onc(-c2c(Cl)cccc2Cl)c1NC(=O)NNc1ccccn1 | 3.17
35 | COc1ccc(NC(=O)CN(C)C(=O)c2cccc(S(=O)(=O)N3CCN(C)CC3)c2)cc1 | 5.65
36 | COc1ccc(C2(C)NC(=O)N(CC3CCCCC3)C2=O)cc1 (stereo not shown) | 13.5
37 | C[C@H]1C[C@@H](C)C(=O)[C@@H]([C@H](O)CC2CC(=O)NC(=O)C2)C1 | 14.5
38 | COC(=O)COc1ccc2c(=O)c(-c3ccccc3)coc2c1 | 14.8
39 | CCOC(=O)c1cc2cc([N+](=O)[O-])cc(OC)c2oc1=O | 0.469
40 | Cc1cc(C)n(-c2ccc(C(=O)NCc3ccc(F)cc3)cc2)n1 | 6.3
41 | CC1(c2ccc3ccccc3c2)NC(=O)N(CC(=O)N2CCN(c3ccccc3O)CC2)C1=O (stereo not shown) | 7.63
42 | CN1CCCN(C(=O)C2CCCCC2)CC1 | 3.96
43 | O=P(c1ccccc1)(c1ccccc1)N1CCCCC1 | 7.03
44 | Cc1csc(NC(=O)c2cnccn2)n1 | 8.71

Row | SMILES | hERG current change (%, negative = inhibition) at 1uM [%]
45 | Cc1c(C(=O)N2CCCC2)sc(NC(=O)c2ccc(Cl)cc2)c1C#N | 12.8
46 | CC1CCN(c2ccc(C(=O)Nc3nnc(C4CC4)s3)cc2[N+](=O)[O-])CC1 | 12.9
47 | O=C(c1ccc(Cl)c(S(=O)(=O)NCc2ccccc2)c1)N1CCN(c2ccccn2)CC1 | -14.8
48 | COc1ccc(NC(=O)c2cc3nc(-c4ccccc4)cc(C)n3n2)cc1OC | 8.61
49 | Cn1c(=O)[nH]c(=O)c2c1nc(CN1CCN(c3ccccc3F)CC1)n2CCCc1ccccc1 | -15.1
50 | CCOC(=O)C1(CCOc2ccccc2)CCN(Cc2cccs2)CC1 | -32.6
51 | O=C(CSc1nnc2c(Cl)cc(C(F)(F)F)cn12)Nc1ccc2c(c1)OCO2 | -0.381
52 | O=c1ccc(Cc2ccccn2)n[nH]1 | 13.7
53 | CCOC(=O)C1(c2ccccc2)CCN(CCC(C#N)(c2ccccc2)c2ccccc2)CC1.Cl | 2.11
54 | COC(=O)c1cc(=O)n(-c2c(Cl)cc(C(F)(F)F)cc2Cl)[nH]1 | 15.2
55 | CC(C)CSc1nc2ccccc2n1CC(=O)O | 16
56 | COCCNC(=O)/C(C#N)=C/c1cc(Br)c(O)c(OC)c1 | 4.85
57 | Cc1ccc(C(=O)NC2CCN(C(=O)NCc3ccccc3)CC2)cc1 | 8.62
58 | O=C(Nc1cccc2c1C(=O)NC2=O)c1cccc(N2C(=O)CCC2=O)c1 | 1.98
59 | O=C(CNC(=O)c1cccc(F)c1)N/N=C/c1cccs1 | 13.4
60 | CCOc1ccc(-c2nc(-c3cccnc3)no2)cc1 | 5.19
61 | O=S(=O)(Nc1ccc2c(c1)OCCO2)c1cnc[nH]1 | 9.67
62 | O=C(C1CCCN(S(=O)(=O)c2ccccc2)C1)N1CCN(c2ccc(F)cc2)CC1 (stereo not shown) | -62.4
63 | CC(C)Oc1ccc(N2CC(C(=O)OCC(=O)NCc3ccccc3)CC2=O)cc1 (stereo not shown) | -3.02
64 | FC(F)(F)c1cccc(Cn2nnnc2-c2cc(Cl)cc(Cl)c2)c1 | 5.89
65 | C=CCOC(=O)C1=C[C@H](c2coc3ccccc3c2=O)C[C@H](OCCCCO)O1 | -4.32
66 | CCOc1ccc(S(=O)(=O)N2CCC(C(N)=O)CC2)c2ccccc12 | 7.01

Row | SMILES | hERG current change (%, negative = inhibition) at 1uM [%]
67 | O=C(c1ccco1)N1CCN(C(=O)c2ccc(-c3ccc(Cl)cc3)o2)CC1 | -67.5
68 | CC1N/C(=C\C(=O)c2ccccc2)N(O)C1(C)C (stereo not shown) | 12.1
69 | COCCNC(=O)CSc1nc2nc(C)cc(C)n2n1 | 20.6
70 | CCN(CC)c1ccc(N2C(=O)/C(=C\c3cccs3)SC2=S)cc1 | 4.12
71 | COc1ccc(CNS(=O)(=O)c2ccc(-n3cnnn3)c(OC)c2)cc1 | -2.65
72 | CN(c1ccccc1)S(=O)(=O)c1cccc(NC(=O)CCN2C(=O)C3CCCCC3C2=O)c1 (stereo not shown) | 6.87
73 | O=C(NC1CCCC1)c1cc2cc(Br)ccc2o1 | 12.5
74 | COc1ccc(CNC(=O)CCNS(=O)(=O)c2ccc3c(c2)oc(=O)n3C)cc1 | 21.5
75 | COc1ccc(OCC(=O)N2CCN(C(C)C)CC2)cc1.O=C(O)C(=O)O | 12.5
76 | COc1ccc(NS(=O)(=O)c2ccc(C)c(C(=O)NC3CCN(Cc4ccccc4)CC3)c2)cc1 | -0.81
77 | CC(=O)N1CCN(C(=O)c2cccc(S(=O)(=O)NCc3ccccc3)c2)CC1 | 10.6
78 | Cc1snc(SCc2ccc(F)cc2)c1C#N | 8.67
79 | COc1ccc(C(=O)C[n+]2cccc(Br)c2)cc1.[Br-] | 12.5
80 | Nc1c(C(=O)NCCc2ccccc2)c2nc3ccccc3nc2n1CCN1CCOCC1 | 6.94
81 | Nc1c(C(=O)CSc2nc(-c3ccccc3)cs2)c(=O)[nH]c(=O)n1C1CC1 | 7.7
82 | O=C(N/N=C/c1ccc(Cl)cc1Cl)c1n[nH]c2c1CCCC2 | 12.1
83 | COc1cccc(OC)c1/C(O)=C(\C#N)c1nc2ccccc2[nH]1 | -1.83
84 | Cc1ccc2nc(C)c(C(=O)O)cc2c1 | 17.2
85 | CSCCC(C)N1CCC(Oc2ccc(C(=O)N3CCCC3)cc2)CC1 (stereo not shown) | -0.954
86 | CCOC(=O)c1cc(-c2ccncc2)nc2c1c(C)nn2C | -6.27
87 | CC1(c2ccc(Cl)cc2Cl)NC(=O)N(CC(=O)Nc2ccc3[nH]c(=O)[nH]c3c2)C1=O (stereo not shown) | 7.86
88 | O=C(CCCn1c(=S)[nH]c2ccsc2c1=O)NC1CCCCC1 | 19.1
